Some of the results follow. Sequences were assembled here from the parent chain. Values near 0.05 are background.
B1: TEV protease; numbered along this chain (parent)
chain: MGESLFKGPRDYNPISSSICHLTNESDGHTTSLYGIGFGPFIITNKHLFRRNNGTLVVQSLHGVFKVKDTTTLQQHLVDGRDMIIIRMPKDFPPFPQKLKFREPQREERICLVTTNFQTKSMSSMVSDTSCTFPSGDGIFWKHWIQTKDGQCGSPLVSTRDGFIVGIHSASNFTNTNNYFTSVPKNFMELLTNQEAQQWVSGWRLNADSVLWGGHKVFMVKPEEPFQPVKEATQL

Variants of: B1
Assay: raw area under fraction-flipped curve 0-4 h after induction (AUC4h, not background-subtracted), DNA-recorder readout of cleavage of the substrate (dimensionless); higher = more cleavage of the substrate by the protease variant
Conditions: temperature: 34 °C; time window: 0-4 h after rhamnose induction
Description: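 In vivo DNA recorder in E. coli TOP10(DE3) ΔrhaA at 34 °C. Each TEVp single-site mutant (parent TEVp 0) is paired with a single-site variant of the 7-mer TEVs (canonical ENLYFQ|S). The substrate sits between flexible linkers in a Bxb1-sfGFP-TEVs-SsrA fusion, so cleavage stabilises Bxb1 and speeds flipping of a recombination array, read by NGS. The value is the raw area under the fraction-flipped curve over 0-4 h after rhamnose induction (AUC4h), with ≥20 reads per time point. It is not background-subtracted; inactive controls average about 0.047.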
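Further: Bxb1 expression induced with 0.2% (w/v) L-rhamnose at OD600 near 0.5, cultures sampled hourly, flipped fraction per protease–substrate barcode pair counted by paired-end Illumina sequencing.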

Row | Variant | area with substrate ENAYFQS | area with substrate ENEYFQS | area with substrate ENKYFQS | area with substrate ENMYFQS | area with substrate ENNYFQS | area with substrate ENPYFQS | area with substrate ENQYFQS | area with substrate ENSYFQS | area with substrate ENTYFQS | area with substrate ENYYFQS | area with substrate ENDYFQS | area with substrate ENFYFQS | area with substrate ENGYFQS | area with substrate ENHYFQS | area with substrate ENIYFQS | area with substrate ENVYFQS | area with substrate ENWYFQS | area with substrate ENRYFQS | area with substrate ENCYFQS
1 | T71N | 0.0442 | 0.0644 | 0.0678 | 0.0736 | 0.0507 | 0.0465 | 0.0591 | 0.0584 | 0.0878 | 0.0579 |  |  |  |  |  |  |  |  | 
2 | T71G | 0.0697 | 0.0559 | 0.0331 |  | 0.0582 | 0.0562 |  | 0.0855 | 0.0648 | 0.0594 | 0.0606 | 0.0534 | 0.0731 | 0.0559 | 0.0838 | 0.0628 | 0.0471 |  | 
3 | T71Q | 0.0503 | 0.053 | 0.0475 | 0.0972 |  |  | 0.0888 | 0.0408 |  |  | 0.0631 |  | 0.052 |  |  |  |  | 0.0595 | 
4 | G54E | 0.0502 | 0.0548 | 0.0562 |  | 0.0687 | 0.046 | 0.0546 | 0.0585 | 0.0621 |  | 0.0619 |  |  | 0.0743 | 0.0688 | 0.0698 |  | 0.0526 | 0.0785
5 | Y34S | 0.0544 |  | 0.0678 |  |  |  | 0.0563 | 0.056 |  | 0.0471 | 0.0512 |  | 0.111 | 0.0572 |  |  | 0.0692 | 0.0763 | 
6 | Y34R | 0.0409 |  | 0.0591 |  |  |  | 0.0648 | 0.0598 |  |  |  |  | 0.0559 | 0.0376 |  | 0.0674 |  | 0.061 | 0.0109
7 | Y34V | 0.0609 | 0.0677 | 0.066 |  |  |  | 0.0592 | 0.0633 |  |  | 0.0676 | 0.0805 | 0.0592 | 0.0544 |  |  | 0.0425 |  | 0.056
8 | F41H | 0.0615 | 0.0597 |  |  | 0.0584 |  | 0.0648 | 0.0636 | 0.0578 |  | 0.0591 | 0.0569 | 0.0587 | 0.0758 | 0.0958 | 0.083 |  | 0.0496 | 0.0621
9 | T30P | 0.0542 | 0.0537 | 0.0867 |  | 0.0687 |  |  | 0.0593 | 0.081 |  | 0.0748 |  |  | 0.0581 | 0.106 | 0.0617 | 0.0552 |  | 0.0695
10 | K66N | 0.066 |  | 0.0525 | 0.0597 |  |  | 0.0552 |  | 0.0588 |  | 0.0615 | 0.0687 |  | 0.0453 |  |  |  |  | 
11 | Q59P | 0.0403 | 0.0388 | 0.0446 | 0.0395 | 0.0449 | 0.0464 | 0.0338 | 0.0503 | 0.0391 |  | 0.0461 |  | 0.0548 | 0.0435 | 0.0442 |  |  | 0.0495 | 0.033
12 | Q59D | 0.0515 |  |  |  |  |  |  |  |  | 0.051 |  |  |  |  |  |  |  |  | 0.0687
13 | Q59L | 0.0512 |  |  |  |  |  | 0.0428 |  |  |  | 0.0547 |  |  | 0.0551 |  |  | 0.0063 | 0.0446 | 0.0791
14 | T55L | 0.0528 | 0.0511 | 0.0668 |  | 0.0541 |  |  | 0.0588 | 0.0548 |  | 0.0696 | 0.0562 | 0.0703 |  |  | 0.0707 |  |  | 0.0637
15 | T55N | 0.0702 | 0.0564 | 0.0646 |  | 0.0705 | 0.0605 | 0.0607 |  |  |  | 0.062 | 0.0567 |  |  | 0.135 | 0.0984 | 0.0717 | 0.0535 | 0.0466
16 | T55A | 0.05 | 0.0679 | 0.0525 | 0.0664 | 0.0607 | 0.036 | 0.0625 | 0.064 | 0.064 |  | 0.0591 |  | 0.0548 | 0.0732 | 0.0883 | 0.0671 |  | 0.0549 | 
17 | T55D | 0.0648 | 0.0569 | 0.0453 |  | 0.0612 |  | 0.0464 |  |  |  | 0.0508 | 0.0468 |  |  |  |  |  | 0.0493 | 0.0545
18 | F49W | 0.0634 | 0.0567 | 0.0642 | 0.0502 | 0.0564 | 0.0621 | 0.0568 | 0.0663 | 0.0833 |  | 0.0616 | 0.0578 | 0.0471 | 0.0603 |  | 0.0721 |  | 0.055 | 0.0663
19 | T70N | 0.0426 | 0.0692 | 0.0557 | 0.0443 |  |  | 0.0556 |  | 0.0859 |  | 0.0622 |  | 0.0357 |  | 0.0863 | 0.0565 |  | 0.047 | 
20 | T70K | 0.0578 |  |  |  |  |  | 0.07 |  |  | 0.0668 | 0.0628 | 0.0672 | 0.0578 |  |  |  |  |  | 
21 | T70P | 0.0515 | 0.0572 | 0.0754 |  | 0.0475 |  | 0.0631 | 0.0597 | 0.0594 |  | 0.0583 | 0.0665 | 0.0478 |  |  |  | 0.0569 |  | 0.0561
22 | N53W | 0.0624 | 0.0658 | 0.0599 | 0.0779 | 0.039 | 0.0599 | 0.0866 | 0.0606 | 0.0625 | 0.0546 | 0.0635 | 0.0478 | 0.0644 | 0.0724 | 0.0867 | 0.0616 | 0.0592 | 0.084 | 0.0511
23 | N53F | 0.0592 | 0.0546 | 0.0502 | 0.0653 | 0.0672 | 0.0594 | 0.0588 |  | 0.122 |  | 0.0554 | 0.0551 | 0.0583 |  | 0.0763 | 0.0636 |  | 0.062 | 0.0588
24 | N53Y | 0.0711 | 0.051 |  | 0.0796 | 0.0621 | 0.06 | 0.0606 | 0.0758 | 0.0587 |  | 0.066 | 0.0558 | 0.0509 |  | 0.0812 | 0.0625 | 0.0573 | 0.0564 | 0.0563
25 | P40V | 0.0635 | 0.0363 |  | 0.0662 | 0.0556 | 0.0474 | 0.0562 | 0.0588 | 0.051 | 0.0517 |  | 0.0382 | 0.0177 | 0.0549 |  | 0.08 |  |  | 0.0719
26 | D69K | 0.0509 |  |  | 0.0661 | 0.058 |  | 0.0607 | 0.121 |  |  |  | 0.0596 |  |  |  |  |  |  | 
27 | D69Y | 0.0517 |  | 0.0697 | 0.0908 | 0.0591 | 0.0542 |  | 0.0585 |  |  | 0.0518 | 0.0626 | 0.0631 |  |  |  |  | 0.0637 | 
28 | Q74A | 0.0642 | 0.067 | 0.0693 | 0.0776 | 0.0714 | 0.0716 | 0.0561 | 0.0515 |  |  | 0.0646 | 0.0621 | 0.0751 |  | 0.0918 | 0.027 |  | 0.0476 | 0.0663
29 | N52A | 0.0428 | 0.0555 |  | 0.0634 |  | 0.0576 | 0.0653 | 0.0631 | 0.0667 |  |  | 0.0698 |  |  |  | 0.0501 |  | 0.0667 | 
30 | N52L | 0.057 | 0.0681 | 0.0735 | 0.0623 | 0.0523 |  |  | 0.0563 | 0.0654 |  | 0.0722 | 0.0849 | 0.0623 | 0.0606 |  | 0.0616 | 0.0682 | 0.0399 | 

— the supplement of paper PMC12217912
